Test results published in PMC4336329 (PLoS ONE, 2015).
Among all 310,000 compounds or so, about 2,200 (0.71%) showed an effect of 50% or more. Effects have a minus sign here. The list shows a part of the results.

The compounds below were run against human ether-à-go-go-related gene (hERG) potassium channel (human, UniProt Q12809) (assay: primary screen, population patch clamp on CHO cells stably expressing hERG).
human ether-à-go-go-related gene (hERG) potassium channel, sequence (Q12809 whole entry, looked up): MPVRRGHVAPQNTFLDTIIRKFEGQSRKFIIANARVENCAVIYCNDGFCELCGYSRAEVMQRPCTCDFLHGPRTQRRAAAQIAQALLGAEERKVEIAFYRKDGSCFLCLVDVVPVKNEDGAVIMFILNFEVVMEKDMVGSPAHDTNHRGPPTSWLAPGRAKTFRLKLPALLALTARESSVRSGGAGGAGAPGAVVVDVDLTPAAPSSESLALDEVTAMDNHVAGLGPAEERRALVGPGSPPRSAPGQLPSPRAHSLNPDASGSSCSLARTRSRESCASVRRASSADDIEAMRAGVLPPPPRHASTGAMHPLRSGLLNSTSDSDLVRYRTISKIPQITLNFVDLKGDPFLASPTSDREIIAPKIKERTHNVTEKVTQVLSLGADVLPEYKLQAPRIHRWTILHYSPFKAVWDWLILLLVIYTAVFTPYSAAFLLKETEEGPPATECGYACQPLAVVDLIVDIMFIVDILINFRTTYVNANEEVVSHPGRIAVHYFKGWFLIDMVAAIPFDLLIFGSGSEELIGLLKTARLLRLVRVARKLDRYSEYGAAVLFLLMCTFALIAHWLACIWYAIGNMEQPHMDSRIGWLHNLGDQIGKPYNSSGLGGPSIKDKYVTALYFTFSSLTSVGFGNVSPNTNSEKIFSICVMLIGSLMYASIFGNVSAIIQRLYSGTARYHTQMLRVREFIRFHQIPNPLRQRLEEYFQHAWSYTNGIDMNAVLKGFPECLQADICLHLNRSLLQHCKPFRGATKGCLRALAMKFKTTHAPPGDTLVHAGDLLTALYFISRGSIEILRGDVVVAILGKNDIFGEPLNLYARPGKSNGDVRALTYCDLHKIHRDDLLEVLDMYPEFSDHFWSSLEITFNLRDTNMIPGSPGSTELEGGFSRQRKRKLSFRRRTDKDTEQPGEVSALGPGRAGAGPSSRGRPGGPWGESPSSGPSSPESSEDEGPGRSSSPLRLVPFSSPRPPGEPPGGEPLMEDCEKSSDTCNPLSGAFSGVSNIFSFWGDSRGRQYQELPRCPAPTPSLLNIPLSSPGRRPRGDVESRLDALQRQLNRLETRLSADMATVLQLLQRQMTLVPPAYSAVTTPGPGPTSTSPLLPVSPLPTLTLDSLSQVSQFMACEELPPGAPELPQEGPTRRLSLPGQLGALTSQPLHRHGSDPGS

| SMILES | hERG current change (%, negative = inhibition) at 1uM [%] |
| --- | --- |
| CCC(=O)N1CCc2cc(-c3csc(NC(=O)c4ccco4)n3)ccc21 | 15 |
| O=C(NNS(=O)(=O)c1cc(Cl)c(Cl)cc1Cl)c1cccnc1 | 6.67 |
| COc1ccccc1N(CC(=O)NCCC1=CCCCC1)S(=O)(=O)c1ccccc1 | 0.363 |
| Nc1nc(NCc2ccco2)nn1-c1ccccc1 | 12.2 |
| COC(=O)CC1C(=O)NCCN1C(=O)CSc1nnc(Nc2ccc(C)cc2)s1 (stereo not shown) | 7.15 |
| C/C(=N/NC(=O)c1sc(NS(=O)(=O)c2ccccc2)nc1C)c1ccc(F)cc1 | 7.19 |
| O=C(NCC1CCCO1)C1CCCN(S(=O)(=O)c2cccc3nsnc23)C1 (stereo not shown) | 10.3 |
| C=CCn1c(O)c(CN2CCN(Cc3ccccc3)CC2)c(C)c(C#N)c1=O | -8.67 |
| Cc1nn(C(C)C(=O)NCCCN2CCCCCC2)c(=O)c2c1sc1ccccc12 (stereo not shown) | 3.67 |
| CC(=O)N1CCN(c2nc3cc4c(cc3nc2NS(=O)(=O)c2ccccc2)OCCO4)CC1 | 10.4 |
| Cc1ccc(NC(=O)Cn2nc(C)c3ccccc3c2=O)c(C)c1 | 17 |
| CCCCn1nc(C(=O)N(C)C2CCCCC2)c2ccccc2c1=O | 0.346 |
| O=C(/C=C/c1ccccc1[N+](=O)[O-])NCCCN1CCCC1=O | 18.1 |
| CC1=C(C(=O)OCC2CCCO2)C(c2cccc(C(F)(F)F)c2)C2=C(CC(c3ccco3)CC2=O)N1 (stereo not shown) | 9.71 |
| CN1CCN(C(=O)/C(=C\c2ccc3c(c2)OCO3)NC(=O)c2cccs2)CC1 | -75.6 |
| Cc1ccccc1-c1nnc(SCc2ccccc2F)o1 | -8.44 |
| CC(C)CC(c1nnnn1C(C)(C)C)N1CCN(Cc2ccccc2)CC1.Cl (stereo not shown) | 6.39 |
| CC(C)CCNC(=O)c1cccc(C(=O)NCCC(C)C)c1 | 16 |
| O=C(CSc1ccccc1)Nc1ccncc1 | 10.8 |
| CCCCCCN=C(C)c1ccccc1O | 9.22 |
| CSc1cccc(NC(=O)c2cnn3ccccc23)c1 | 14.4 |
| CN1CCN(S(=O)(=O)c2ccc(NC(=O)Cc3cccs3)cc2)CC1 | -0.519 |

| SMILES | hERG current change (%, negative = inhibition) at 1uM [%] |
| --- | --- |
| CCC1(C)Cc2c(sc3c2c(=O)n(-c2ccccc2)c(=O)n3C)CO1 (stereo not shown) | 10.8 |
| CCOC(=O)N1CCN(C(=O)c2cccn3c(=O)c4cc(Br)ccc4nc23)CC1 | -30.6 |
| NC(=O)C1CCN(C(=O)c2cc3ccccc3cc2O)CC1 | 5.46 |
| O=C(NCC1CCCO1)c1nn2cccnc2c1Cl (stereo not shown) | 16 |
| CCOc1ccc(S(=O)(=O)N2CCCCC2)cc1NC(=O)CN1C(=O)NC(CC)(c2ccccc2)C1=O (stereo not shown) | 10.5 |
| Cc1nc(-c2ccc(O)c(O)c2)cs1 | 1.64 |
| Cc1ccc(-c2ccc(/C=C(\C#N)C(=O)Nc3cc(C)nn3-c3ccccc3)o2)cc1 | 7 |
| CCOC(=O)CC1C(=O)NCCN1C(=O)c1sc2ccccc2c1Cl (stereo not shown) | 18.9 |
| O=C(NCCO)c1ccc2c(c1)S(=O)(=O)c1ccccc1C2=O | 1.72 |
| CNC(=O)c1c(C)nc(SCC(=O)NCc2ccc(OC)cc2)c(C#N)c1-c1ccco1 | -7.83 |
| Cn1cc(CNC(=O)/C=C/c2ccc(Cl)cc2)cn1 | 11.2 |
| CCN(CC(=O)NCc1cccs1)C(=O)c1cccc(S(=O)(=O)NC)c1 | 14.1 |
| COc1ccc(Cn2cc(C(=O)c3ccccc3)c(=O)c3cc(OC)ccc32)cc1 | -2.11 |
| CN(C)[C@@H]1C(=O)C(C(N)=O)=C(O)[C@@]2(O)C(=O)C3=C(O)c4c(O)cccc4[C@@](C)(O)[C@H]3[C@H](O)[C@@H]12 | 5.51 |
| Cc1cc(/C=C(/C#N)c2nc3ccccc3[nH]2)c(C)n1-c1ccccc1C(=O)O | 17.3 |
| COC(=O)N(C)c1ccc(C(O)(C(=O)OC)C(F)(F)F)cc1 (stereo not shown) | 1.43 |
| CSc1ccc(/C=N/n2nnnc2N)cc1 | 1.09 |
| O=C(COC(=O)c1ccc(Cl)c(S(=O)(=O)NCc2ccccc2)c1)NCC1CCCO1 (stereo not shown) | 5.46 |
| CC(C)NC(=O)CC1OC(=O)c2ccccc21 (stereo not shown) | 16.2 |
| N#CC1=C(N)N2C(=C(C#N)C1c1ccccc1)Sc1ccccc12 (stereo not shown) | 7.56 |
| COc1ccc(/C=C/C(=O)c2ccc3c(c2)OCO3)c(OC)c1 | 3.45 |
| Cc1c(Cl)cnc(NC(=O)COC(=O)c2ccc3c(c2)OCO3)c1Cl | 7 |

| SMILES | hERG current change (%, negative = inhibition) at 1uM [%] |
| --- | --- |
| CCCCCn1c(=O)c(C(=O)Nc2ccccc2S(N)(=O)=O)c(O)c2ccccc21 | 14.1 |
| COc1ccc(Br)cc1/C=N/NC(=O)CN1CCCCC1 | 4.9 |
| CCCN(CCC)C(=O)c1ccc2c(c1)OCO2 | 2.21 |
| CN(CC(=O)Nc1ccc([N+](=O)[O-])cc1Br)Cc1c(F)cccc1Cl | 9.69 |
| N=c1nc(N2CCCCC2)cc(N)n1O | 13.2 |
| CCOC(=O)c1ccc(NC(=S)N(CCCN2CCCCC2)Cc2ccco2)cc1 | -71.3 |
| N#CC1(Cc2ccccc2Cl)c2ccccc2C=CN1C(=O)c1ccccc1 (stereo not shown) | 17 |
| O=C(COC(=O)C1(c2ccc(F)cc2)CCCC1)N1CCc2ccccc21 | 7.76 |
| O=C(NCC1CCCO1)c1ccc(S(=O)(=O)N2CCCCC2)cc1 (stereo not shown) | 4.44 |
| COc1ccc(C(c2nnnn2Cc2ccccc2)N2CCN(C(=O)c3ccco3)CC2)cc1OC.Cl (stereo not shown) | -7.96 |
| O=C(Cn1c2ccccc2c2nc3n(c(=O)c21)CCS3)Nc1ccccc1C(F)(F)F | 9.51 |
| CCCn1nnc(NC(=O)COc2ccc(C3CCCCC3)cc2)n1 | 10.2 |
| NC(=O)c1oc2ccccc2c1NC(=O)C1COc2ccccc2O1 (stereo not shown) | 13.7 |
| CCC(C)n1c(-c2ccco2)nc2nc3ccccc3nc21 (stereo not shown) | 6.96 |
| CC(C)CCN(C(=O)C1CCCC1)c1c(N)n(Cc2ccccc2)c(=O)[nH]c1=O | 5.93 |
| CCOC(=O)C1=C(O)C(=O)N(c2ccc(S(N)(=O)=O)cc2)C1c1ccccc1 (stereo not shown) | 12.9 |
| Cc1cc(NC(=O)CN2C(=O)CC(c3ccco3)Sc3ccccc32)no1 (stereo not shown) | -17.8 |
| COc1ccc(Nc2cc(C)nc(N3CCN(C(=O)c4ccc5c(c4)OCO5)CC3)n2)cc1 | 7.75 |
| CC1N(C)c2cccc3cccc(c23)N1C | 0.571 |
| CCn1c(COc2cccc(OC)c2)nnc1SCC(=O)Nc1cccc(OC)c1 | -1.46 |
| O=C(O)c1ccc(NS(=O)(=O)c2ccc(NC(=O)c3ccccc3Cl)cc2)cc1 | 13.3 |
| O=C1Nc2cccnc2N(C(=O)CCl)c2ccccc21 | 13.1 |

| SMILES | hERG current change (%, negative = inhibition) at 1uM [%] |
| --- | --- |
| O=C(Nc1ccc(S(=O)(=O)N2CCOCC2)cc1)c1ccccc1Br | 10.6 |
| Cc1ccc(OCC(=O)N2CCN(c3ccc([N+](=O)[O-])c(N4CCOCC4)c3)CC2)cc1 | -3.05 |
| CCOC(=O)N(C)OC(=O)Nc1ccc(Cl)c(Cl)c1 | -6 |
| O=[N+]([O-])c1ccccc1Oc1ccc(Cl)c2cccnc12 | 8.94 |
| CNC(=S)Nc1ccc(Nc2ccccc2)cc1 | 12.8 |
| O=C1/C(=C/Nc2cccc([N+](=O)[O-])c2)CCc2ccccc21 | 1.17 |
| CSc1nc2c(cc1C#N)C(=O)CC(C)(C)C2 | -2.19 |
| CC(O)c1nc2ccccc2n1CCOc1ccccc1 (stereo not shown) | 12.1 |
| Cc1cc(SCC(=O)Nc2cccc(S(=O)(=O)NC3=NCCCCC3)c2)c(C)cc1Br | 2.94 |
| O=C(Cn1cnc2ccccc2c1=O)NCc1ccco1 | 19.9 |
| COc1ccc(CCC(=O)Nc2nnc(C(F)(F)F)s2)cc1 | 10.3 |
| CCc1ccc(NC(=O)C(=O)NCCN2CCN(S(C)(=O)=O)CC2)cc1 | 18.2 |
| COc1ccc(NC(=O)CSc2nnc(CNC(=O)c3cccs3)o2)c(OC)c1 | 12.1 |
| Cc1cc(C)n(CCNC(=O)CC2C(=O)NCCN2CC2CCCCC2)n1 (stereo not shown) | 14.5 |
| CCC(=O)NC(c1ccc([N+](=O)[O-])cc1)c1c(O)ccc2ccccc12 (stereo not shown) | 0.955 |
| Cc1ccccc1Cn1nc(C)c(NC(=O)C(F)(F)F)c1C | 6.45 |
| Oc1ccc(C(=S)N2CCN(c3cccc(Cl)c3)CC2)cc1 | 13.9 |
| Cc1cc(C(=O)Nc2sc(C)c(C)c2C#N)c(C)o1 | 3.39 |
| CCOC(=O)C1CCN(C(=O)CC2C(=O)N(Cc3ccccc3)C(C)c3nc4ccccc4n32)CC1 (stereo not shown) | 4.09 |
| CCOC(=O)c1cc(OC(=O)c2cccs2)n(-c2ccccc2)n1 | 4.26 |
| Cc1nnc(NC(=O)CSc2nccn2-c2ccc(F)cc2)s1 | 3.09 |
| O=C(Nc1nnc(-c2ccncc2)o1)c1ccc(Br)s1 | 10 |
